Results as given in patent US7592316B2, “Peptides as NS3-serine protease inhibitors of hepatitis C virus” (Schering Corporation, priority 2000, dated 2009).
*1 amine or outer side, *2 acyl side, *3 side chain or, on linkers, in order; H or OH if unused. Where a SMILES comes first, the peptide text is derived from it. [ ]: non-standard residue; d: D form. The star is where a group is joined. ξ: configuration not given here. ξ(3-Amino-2-oxohex-5-enoyl) = C=CCC(N[*:1])C(=O)C(=O)[*:2]; Pro(3R,4S-CMe2) = CC1(C)[C@@H]2[C@@H](C(=O)O)NC[C@@H]21; ξLeu(ψCOCO) = CC(C)CC(N[*:1])C(=O)C(=O)[*:2]; Gly(2-thienyl) = N[C@H](C(=O)O)c1cccs1; Isobutyloxycarbonyl = CC(C)COC(=O)*; X8 = O=C(C(=O)[*:2])C(CC1CC1)N[*:1]; X4 = CCCCC(N[*:1])C(=O)C(=O)[*:2]; X46 = CSCC(N[*:1])C(=O)C(=O)[*:2]; Hyp = O=C(O)[C@@H]1C[C@@H](O)CN1; X2 = CCCC(N[*:1])C(=O)C(=O)[*:2]; dTle = CC(C)(C)[C@@H](N)C(=O)O; Phg = N[C@H](C(=O)O)c1ccccc1; Tle = CC(C)(C)[C@H](N)C(=O)O; ξPhg = NC(C(=O)O)c1ccccc1; ξTle = CC(C)(C)C(N)C(=O)O; Boc = CC(C)(C)OC(=O)*; tBu = CC(C)(C)*

Target: HCV NS3/NS4A protease (strain 1a) (Hepatitis C virus genotype 1a, UniProt P27958)
Assay: biochemical
Conditions: HCV protease continuous assay results, Table 1; read-out: Ki* Range

SMILES	Ki [nM]
CSCC(NC(=O)[C@@H]1C[C@@H](OC(C)(C)C)CN1C(=O)[C@@H](NC(=O)OCC(C)C)C(C)(C)C)C(=O)C(=O)NCC(=O)N[C@H](C(=O)N(C)C)c1ccccc1 (stereo partly drawn) [Example 315] (Isobutyloxycarbonyl-[Tle][Hyp](tBu)[X46]G[Phg]-NMe2)	101 to 1000
CCCCC(NC(=O)[C@@H]1C[C@@H](OC(C)(C)C)CN1C(=O)[C@@H](NC(=O)OCC(C)C)C(C)(C)C)C(=O)C(=O)NCC(=O)N[C@H](C(=O)N(C)C)c1cccs1 (stereo partly drawn) [Example 316] (Isobutyloxycarbonyl-[Tle][Hyp](tBu)[X4]G[Gly(2-thienyl)]-NMe2)	101 to 1000
CCCCC(NC(=O)[C@@H]1C[C@@H](OC(C)(C)C)CN1C(=O)[C@@H](NC(=O)OCC(C)C)C(C)(C)C)C(=O)C(=O)NCC(=O)N[C@H](C(=O)N(C)C)c1cccs1 (stereo partly drawn) [Example 317] (Isobutyloxycarbonyl-[Tle][Hyp](tBu)[X4]G[Gly(2-thienyl)]-NMe2)	1 to 100
CCCCC(NC(=O)[C@@H]1C[C@@H](OC(C)(C)C)CN1C(=O)[C@@H](NC(=O)OCC(C)C)C(C)(C)C)C(=O)C(=O)NCC(=O)N[C@H](C(=O)N(C)C)c1cccs1 (stereo partly drawn) [Example 318] (Isobutyloxycarbonyl-[Tle][Hyp](tBu)[X4]G[Gly(2-thienyl)]-NMe2)	1 to 100
CCCCC(NC(=O)[C@@H]1C[C@@H](Oc2cc(-c3ccccc3)nc3cc(OC)ccc23)CN1C(=O)[C@@H](NC(=O)OC(C)(C)C)C(C)C)C(=O)C(=O)NCC(=O)N[C@H](C(=O)N(C)C)c1ccccc1 (stereo partly drawn) [Example 319]	1 to 100
CN(C)C(=O)[C@@H](NC(=O)CNC(=O)C(=O)C(CC1CC1)NC(=O)[C@@H]1[C@@H]2[C@H](CN1C(=O)[C@@H](NC(=O)OC(C)(C)C)C(C)(C)C)C2(C)C)c1ccccc1 (stereo partly drawn) [Example 320] (Boc-[Tle][Pro(3R,4S-CMe2)][X8]G[Phg]-NMe2)	1 to 100
CCCC(NC(=O)[C@@H]1[C@@H]2[C@H](CN1C(=O)[C@@H](NC(=O)OC(C)(C)C)C(C)(C)C)C2(C)C)C(=O)C(=O)NC (stereo partly drawn) [Example 321]	> 1000
CCCC(NC(=O)[C@@H]1[C@@H]2[C@H](CN1C(=O)[C@@H](NC(=O)OC(C)(C)C)C(C)(C)C)C2(C)C)C(=O)C(=O)N(C)C (stereo partly drawn) [Example 322]	> 1000
CCCCC(NC(=O)[C@@H]1C[C@@H](OC(C)(C)C)CN1C(=O)[C@@H](NC(=O)OCC(C)C)C(C)(C)C)C(=O)C(=O)NCC(=O)N[C@@H](c1ccccc1)[C@H](C)O (stereo partly drawn) [Example 324]	> 1000
CCCC(NC(=O)[C@@H]1CC(OC(C)(C)C)CN1C(=O)C(NC(=O)OC(C)(C)C)C(C)(C)C)C(=O)C(=O)NCC(=O)NC(C(=O)N(C)C)c1ccccc1 (stereo partly drawn) [Example 325]	1 to 100
CC(C)CC(NC(=O)[C@@H]1[C@@H]2[C@H](CN1C(=O)[C@@H](NC(=O)OC(C)(C)C)C(C)(C)C)C2(C)C)C(=O)C(=O)NCC(=O)N[C@H](C(=O)N(C)C)c1ccccc1 (stereo partly drawn) [Example 326] (Boc-[Tle][Pro(3R,4S-CMe2)][ξLeu(ψCOCO)]G[Phg]-NMe2)	1 to 100
CCCC(NC(=O)C1CC2(CN1C(=O)[C@@H](NC(=O)OCC(C)C)C1CCCCC1)SCCCS2)C(=O)C(N)=O (stereo partly drawn) [Example 328]	101 to 1000
CCCCC(NC(=O)C1[C@@H]2[C@H](CN1C(=O)[C@@H](NC(=O)OCC(C)C)C(C)(C)C)C2(C)C)C(=O)C(=O)NCC(=O)N[C@H](C(=O)N(C)C)c1ccccc1 (stereo partly drawn) [Example 329]	101 to 1000
CCCCC(NC(=O)C1[C@@H]2[C@H](CN1C(=O)[C@@H](NC(=O)OCC(C)C)C(C)(C)C)C2(C)C)C(=O)C(=O)NCC(=O)N[C@H](C(=O)N(C)C)c1ccccc1 (stereo partly drawn) [Example 330]	1 to 100
CCCCC(NC(=O)C1[C@@H]2[C@H](CN1C(=O)[C@@H](NC(=O)OCC(C)C)C(C)(C)C)C2(C)C)C(=O)C(=O)NCC(=O)N[C@H](C(=O)N(C)C)c1ccccc1 (stereo partly drawn) [Example 331]	1 to 100
CCCCC(NC(=O)C1[C@@H]2[C@H](CN1C(=O)[C@@H](NC(=O)OCC(C)(C)C)C(C)(C)C)C2(C)C)C(=O)C(=O)NCC(=O)N[C@H](C(=O)N(C)C)c1ccccc1 (stereo partly drawn) [Example 332]	1 to 100
CCCC(NC(=O)[C@@H]1CC(O)CN1C(=O)C(NC(=O)OC(C)(C)C)C(C)(C)C)C(=O)C(=O)NCC(=O)NC(C(=O)N(C)C)c1ccccc1 (stereo partly drawn) [Example 333]	101 to 1000
C=CCC(NC(=O)[C@@H]1[C@@H]2[C@H](CN1C(=O)[C@H](NC(=O)OC(C)(C)C)C(C)(C)C)C2(C)C)C(=O)C(=O)NCC(=O)OC (stereo partly drawn) [Example 334]	101 to 1000
C=CCC(NC(=O)[C@@H]1[C@@H]2[C@H](CN1C(=O)[C@H](NC(=O)OC(C)(C)C)C(C)(C)C)C2(C)C)C(=O)C(=O)NCC(=O)O (stereo partly drawn) [Example 335]	101 to 1000
CCCC(NC(=O)[C@@H]1CC(OC(=O)CCc2ccccc2)CN1C(=O)C(NC(=O)OC(C)(C)C)C(C)(C)C)C(=O)C(=O)NCC(=O)NC(C(=O)N(C)C)c1ccccc1 (stereo partly drawn) [Example 336]	1 to 100
C=CCC(NC(=O)[C@@H]1[C@@H]2[C@H](CN1C(=O)[C@H](NC(=O)OC(C)(C)C)C(C)(C)C)C2(C)C)C(=O)C(=O)NCC(=O)N[C@H](C(=O)N(C)C)c1ccccc1 (stereo partly drawn) [Example 337] (Boc-[dTle][Pro(3R,4S-CMe2)][ξ(3-Amino-2-oxohex-5-enoyl)]G[Phg]-NMe2)	1 to 100

SMILES	Ki [nM]
CCCC(NC(=O)[C@@H]1C[C@@H](Oc2cc(-c3ccccc3)nc3cc(OC)ccc23)CN1C(=O)[C@@H](NC(=O)OC(C)(C)C)C(C)C)C(=O)C(=O)OC(C)(C)C (stereo partly drawn) [Example 338]	> 1000
C=CCC(NC(=O)[C@@H]1[C@@H]2[C@H](CN1C(=O)C(NC(=O)OC(C)(C)C)C(C)(C)C)C2(C)C)C(=O)C(=O)NCC(=O)N[C@H](C(=O)N(C)C)c1ccccc1 (stereo partly drawn) [Example 339] (Boc-[ξTle][Pro(3R,4S-CMe2)][ξ(3-Amino-2-oxohex-5-enoyl)]G[Phg]-NMe2)	1 to 100
CCCC(NC(=O)[C@@H]1C[C@@H](Oc2cc(-c3ccccc3)nc3cc(OC)ccc23)CN1C(=O)[C@@H](N)C(C)C)C(=O)C(=O)O (stereo partly drawn) [Example 340]	> 1000
CCCCC(NC(=O)[C@@H]1C[C@@H](OC(C)(C)C)CN1C(=O)[C@@H](NC(=O)OCC(C)C)C(C)(C)C)C(=O)C(=O)NCC(=O)N[C@H](CN)c1ccccc1 (stereo partly drawn) [Example 341]	> 1000
C=CCCC(NC(=O)[C@@H]1C[C@@H](OC(C)(C)C)CN1C(=O)[C@@H](NC(=O)OCC(C)C)C(C)(C)C)C(=O)C(=O)O (stereo partly drawn) [Example 342]	> 1000
CCCC(NC(=O)[C@@H]1CC(OC(=O)C(C)(C)C)CN1C(=O)C(NC(=O)OC(C)(C)C)C(C)(C)C)C(=O)C(=O)NCC(=O)NC(C(=O)N(C)C)c1ccccc1 (stereo partly drawn) [Example 343]	1 to 100
CC[C@@H](C)CC(NC(=O)[C@@H]1C[C@@H](OC(C)(C)C)CN1C(=O)C(NC(=O)OCC(C)C)C(C)(C)C)C(=O)C(=O)NCC(=O)N[C@@H](c1ccccc1)[C@H](C)O (stereo partly drawn) [Example 344]	> 1000
CC[C@@H](C)C(NC(=O)[C@@H]1C[C@@H](OC(C)(C)C)CN1C(=O)C(NC(=O)OCC(C)C)C(C)(C)C)C(=O)C(=O)NCC(=O)N[C@@H](c1ccccc1)[C@H](C)O (stereo partly drawn) [Example 345]	> 1000
CC[C@@H](C)C(NC(=O)[C@@H]1C[C@@H](OC(C)(C)C)CN1C(=O)[C@@H](NC(=O)OCC(C)C)C(C)(C)C)C(=O)C(=O)NCC(=O)N[C@@H](c1ccccc1)[C@@H](C)O (stereo partly drawn) [Example 346]	> 1000
C=CCCC(NC(=O)[C@@H]1[C@@H]2[C@H](CN1C(=O)[C@@H](NC(=O)OC(C)(C)C)C(C)(C)C)C2(C)C)C(=O)C(=O)NCC=C (stereo partly drawn) [Example 347]	101 to 1000
C=CCCC(NC(=O)[C@@H]1[C@@H]2[C@H](CN1C(=O)[C@@H](NC(=O)OC(C)(C)C)C(C)(C)C)C2(C)C)C(=O)C(=O)NCCC(=O)OCC (stereo partly drawn) [Example 348]	101 to 1000
C=CCCC(NC(=O)[C@@H]1[C@@H]2[C@H](CN1C(=O)[C@@H](NC(=O)OC(C)(C)C)C(C)(C)C)C2(C)C)C(=O)C(=O)NCCC(=O)O (stereo partly drawn) [Example 349]	> 1000
CCCCC(NC(=O)[C@@H]1[C@@H]2[C@H](CN1C(=O)[C@@H](NC(=O)OC(C)(C)C)C(C)(C)C)C2(C)C)C(=O)C(=O)NC(C)(C)C (stereo partly drawn) [Example 350]	> 1000
C=CCCC(NC(=O)[C@@H]1[C@@H]2[C@H](CN1C(=O)[C@@H](NC(=O)OC(C)(C)C)C(C)(C)C)C2(C)C)C(=O)C(=O)NC1CC1 (stereo partly drawn) [Example 351]	> 1000
C=CCCC(NC(=O)[C@@H]1[C@@H]2[C@H](CN1C(=O)[C@@H](NC(=O)OC(C)(C)C)C(C)(C)C)C2(C)C)C(=O)C(=O)NCC1CC1 (stereo partly drawn) [Example 352]	> 1000
C=CCCC(NC(=O)[C@@H]1[C@@H]2[C@H](CN1C(=O)[C@@H](NC(=O)OC(C)(C)C)C(C)(C)C)C2(C)C)C(=O)C(=O)NCCc1ccccc1OC (stereo partly drawn) [Example 353]	> 1000
C=CCCC(NC(=O)[C@@H]1[C@@H]2[C@H](CN1C(=O)[C@@H](NC(=O)OC(C)(C)C)C(C)(C)C)C2(C)C)C(=O)C(=O)NCCC (stereo partly drawn) [Example 354]	> 1000
C=CCCC(NC(=O)[C@@H]1[C@@H]2[C@H](CN1C(=O)[C@@H](NC(=O)OC(C)(C)C)C(C)(C)C)C2(C)C)C(=O)C(=O)N1CC=CCC1 (stereo partly drawn) [Example 355]	> 1000
CCCC(NC(=O)[C@@H]1[C@@H]2[C@H](CN1C(=O)[C@@H](NC(=O)OC(C)(C)C)C(C)(C)C)C2(C)C)C(=O)C(=O)N[C@@H](C)C(=O)NC(C(=O)N(C)C)c1ccccc1 (stereo partly drawn) [Example 357] (Boc-[Tle][Pro(3R,4S-CMe2)][X2]A[ξPhg]-NMe2)	1 to 100
CCCC(NC(=O)[C@@H]1[C@@H]2[C@H](CN1C(=O)[C@@H](NC(=O)OC(C)(C)C)C(C)(C)C)C2(C)C)C(=O)C(=O)N[C@@H](C)C(=O)OC (stereo partly drawn) [Example 358]	> 1000
C=CCC(NC(=O)[C@@H]1[C@@H]2[C@H](CN1C(=O)[C@@H](NC(=O)OC(C)(C)C)C(C)(C)C)C2(C)C)C(=O)C(=O)NCC(=O)NCc1ccccc1 (stereo partly drawn) [Example 359]	1 to 100
